Measurements published in the supplement of paper PMC11417369.
± gives the standard deviation of the averaged measurements. The list shows a part of the results.

Each sequence was assayed on PfAP2-G AP2 domain (GST-tagged) (assay: gcPBM binding intensity (ln(normalized median fluorescence intensity)); higher = stronger DNA binding).
Summary of the method: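 After 1 h on an Agilent 4 × 180k array of primer-extended double-stranded 36-bp intergenic genomic probes and negative controls, bound GST-tagged P. falciparum DNA-binding domains were detected with Alexa488 anti-GST antibody and scanned at 488 nm. The domains had been expressed in E. coli, and binding took place in 1× PBS with 1% milk, 0.2 mg/ml BSA, 0.5% salmon testes DNA and 0.03% Triton X-100. Binding intensity is the highest Masliner-normalised natural-log median intensity across replicate spots of either probe orientation.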

Sequence | gcPBM binding intensity (ln)
ATCATATGTATGCATACACACAAAAAGTTATTTATA [CACACA_site6325] | 9.96 ± 0.13
GAAAATCAGTTAAACACACACATAAAAAAAAAAAAA [CACACA_site2875] | 9.84 ± 0.4
TATTTTTCTTTTTTTTTTTTTTTTATATTATACGTG [XGTACX_negctrl_site363] | 9.71 ± 0.014
CTTTTTAAATTAAAATGTACAGAAAAATATTATTAT [XGTACX_site8760] | 10.9 ± 0.59
CATATAAAAAAATAGACACACATTTTATATAATACG [CACACA_site1896] | 10.14 ± 0.014
TATTTGTAAATCGATACACACATATATCTTAATATA [CACACA_site4273] | 9.835 ± 0.035
CGGCACGTGATATATACACACATATAGATATATACA [CACACA_site6408] | 9.805 ± 0.035
TGGATAATGAATGATGCACACTAAAAATATTCTACA [CACACA_site5912] | 9.94 ± 0.028
CTTTTTTCAAGACACACACACAAGAAAATATAAATA [CACACA_site7455] | 10.4 ± 0.28
TGTTAATTGAATGCAATCTGAATTTTTTTACATAAT [CACACA_negctrl_site1002] | 9.65 ± 0.057
CACCCACCCAGACACACACACACAAAAAAAAAAAGA [CACACA_site499] | 10.4 ± 0.42
ATATATACTATATTTTAACACACAAAAAAAAAAAAT [CACACA_site8277] | 10 ± 0.23
CTCAATATTATTACTACACACAAATTAATATTTTCC [CACACA_site55] | 9.93 ± 0.14
TCACATGGAAAAAAGTGTACATAATTATGTATAAAT [XGTACX_site2827] | 11.5 ± 0.82
TATAAAAAATAAAAAGTTTAATGAATATTTCTTTTA [TGCATGCA_negctrl_site379] | 9.44 ± 0.057
TTACAAGTAAAAGGTACACACATTATATATACAAAT [CACACA_site8290] | 11.3 ± 1
TAATTTTTATTTTATTTTATTTTTTTTTTTTTTATT [CACACA_negctrl_site1671] | 9.18 ± 0.057
ATATATATAACATATACACACGTTCATATATATATA [CACACA_site4416] | 9.97 ± 0.18
TCCCTAAAAAATGATAAATGGAGACAATTCCGACAA [GTGCAC_negctrl_site209] | 10.1 ± 0.18
TTATATATATTTAAATTTTATCTCACATATATATAT [TGCATGCA_negctrl_site275] | 9.78 ± 0.14
TATAGAAGCGTTCACACACACACATACATACCCATA [CACACA_site4915] | 10.3 ± 0.35
AAAAAACAATCTCATACACACTAGGGATTAATTATT [CACACA_site5051] | 9.86 ± 0.042
AAAAAAAAAAAAATCACACACAATATGAATTTATAG [CACACA_site601] | 9.67 ± 0.085
AATACAATTTCTAGCACACAAAATATTATTATAATT [CACACA_site3223] | 10.1 ± 0.23
